# Laboratory results: article PMC6919601, “Identification of Plasmodium dipeptidyl aminopeptidase allosteric inhibitors by high throughput screening” (PLoS ONE, 2019)
# In all, about 110,000 compounds went through this assay and about 230 (0.21%) showed an effect of 50% or more. The list shows a part of the results.
# Target: DPAP1 (Plasmodium falciparum, UniProt Q8IIJ9)
# Experiment: primary screen, percent inhibition; read by cleavage of a fluorogenic dipeptide substrate; higher = more effect of the substance
# Set-up: species or system P. falciparum D10 trophozoite lysates; single well
# 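Further: 30 min substrate incubation versus DMSO and 10 µM JCP410 controls.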
# Sequence of DPAP1 (Q8IIJ9 whole entry, looked up): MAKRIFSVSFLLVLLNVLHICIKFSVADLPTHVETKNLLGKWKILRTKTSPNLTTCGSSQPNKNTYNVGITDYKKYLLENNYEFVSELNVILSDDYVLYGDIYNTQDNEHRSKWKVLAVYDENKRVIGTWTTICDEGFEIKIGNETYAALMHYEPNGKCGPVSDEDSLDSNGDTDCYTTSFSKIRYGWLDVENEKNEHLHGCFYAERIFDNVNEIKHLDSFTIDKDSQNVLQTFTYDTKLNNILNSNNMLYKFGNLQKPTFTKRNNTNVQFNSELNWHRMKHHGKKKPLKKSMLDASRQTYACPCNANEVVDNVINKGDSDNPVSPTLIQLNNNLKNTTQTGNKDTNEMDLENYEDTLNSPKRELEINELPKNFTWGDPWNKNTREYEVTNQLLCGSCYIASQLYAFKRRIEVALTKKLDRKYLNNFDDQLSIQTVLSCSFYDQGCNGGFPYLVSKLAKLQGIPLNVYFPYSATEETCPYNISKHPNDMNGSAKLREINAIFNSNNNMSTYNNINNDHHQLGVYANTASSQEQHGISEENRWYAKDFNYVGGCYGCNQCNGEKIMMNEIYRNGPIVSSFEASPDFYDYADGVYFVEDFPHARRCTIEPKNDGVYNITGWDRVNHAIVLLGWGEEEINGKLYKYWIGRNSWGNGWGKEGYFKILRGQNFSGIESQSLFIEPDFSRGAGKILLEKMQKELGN
row,Structure (SMILES),% Inhibition @ 10 uM
1,COc1cc(C(CC(=O)Nc2ccc(Cl)cn2)N2Cc3ccccc3C2=O)cc(OC)c1OC (stereo not shown),-10.1%
2,COc1ccc(C2C(C#N)=C(N)Oc3c2c(C)nn3-c2ccc(C)cc2)c(OC)c1 (stereo not shown),-5.48%
3,COc1ccc(OCCNC(=O)C(c2ccccc2)c2ccccc2)cc1,-2.19%
4,COc1ccc(-c2ccc(=O)n(Cc3c(F)cccc3Cl)n2)cc1,0.718%
5,Cc1ccc(S(=O)(=O)n2nc(-c3ccccc3)nc2NCc2ccc(F)cc2)cc1,6.84%
6,CCN(CC)C(=S)NC(=O)/C=C/c1cccs1,1.44%
7,Cc1ccccc1C1C=C(c2cccnc2)Nc2nc3ccccc3n21 (stereo not shown),0.219%
8,Cc1ccc(NC(=O)Cc2ccccc2)c(C)c1,3.47%
9,Oc1ccccc1-c1nnco1,-3.21%
10,O=C(O)C1C2C=CC(C2)C1C(=O)N1CCN(c2ccccc2)CC1 (stereo not shown),-3.18%
11,CCn1c(SCC(=O)c2ccccc2)nc2ccccc2c1=O,2.86%
12,CC(C)COc1ccc(C(=O)N/C(=C/c2ccc3c(c2)OCO3)C(=O)O)cc1,3.86%
13,Cc1c(Cl)cccc1N(CC(=O)N1CCC(C)CC1)S(C)(=O)=O,1.67%
14,Cc1cc(C)c2c(CC(=O)NCc3ccc4c(c3)OCO4)coc2c1,1%
15,COc1ccc(C(=O)Nc2nc(-c3nnn(-c4cc(C)cc(C)c4)c3C)ns2)cc1,1.8%
16,CC(C)C[C@H](NC(=O)c1ccc(N2CCN(C)CC2)cc1)C(=O)N[C@@H](CCCN=C(N)N)C(N)=O,-3.04%
17,Cc1nn(-c2ccccc2)c2c(=O)c(I)cccc12,-2.2%
18,Cc1cccc(C(=O)N(Cc2ccccc2)C(C)C)c1,1.83%
19,Cc1ccc2nc(-c3ccc4c(c3)OCO4)cc(C(=O)O)c2c1,-5.06%
20,CCn1cc(C(=O)O)c(=O)c2cc(F)c(N3CCC4CCCN4C3)cc21 (stereo not shown),-1.85%
21,Cn1c(=N)n(CCOc2ccccc2Cl)c2ccccc21,-0.251%
22,CCOc1ccc(CCNC(=O)c2cc(C3CC3)[nH]n2)cc1OCC,0.359%
23,CN1C(=O)/C(=C/c2c[nH]c3ccccc23)S/C1=N/c1ccc(C(=O)O)cc1,0.606%
24,CC1=CC(=C2C(=O)NC(=O)NC2=O)C=C(C(F)(F)F)N1Cc1ccccc1,20.6%
25,COc1ccc(S(=O)(=O)NC2CCCCC2)cc1OC,-3.74%

row,Structure (SMILES),% Inhibition @ 10 uM
1,COc1ccc(/N=C(\C)c2c(C)nn(-c3ccccc3)c2O)c(OC)c1,-2.68%
2,N#CC1=C(N)Oc2[nH]nc(-c3cccc4ccccc34)c2C1c1ccccc1F (stereo not shown),4.09%
3,COc1cc(/C=C2\SC(c3ccccc3)=NC2=O)cc(Cl)c1O,4.3%
4,Cc1nc2ncnn2c(C)c1Cl,2.62%
5,Cc1cccc(NC(=O)CN2C(=O)N/C(=C/c3ccc(OCC(C)C)cc3)C2=O)c1,6.65%
6,CCOc1ccc(-n2nc3ccc(NC(=O)c4cc(OC)cc(OC)c4)cc3n2)cc1,0.214%
7,O[S+]1c2ccccc2Nc2cc(C(F)(F)F)ccc21 (stereo not shown),2.51%
8,CSc1ncc2c(O)c3c(nc2n1)N(C)CCC3,3.8%
9,COc1ccc(OC)c(N(CC(=O)NCc2ccco2)S(C)(=O)=O)c1,-3.75%
10,COCCCNC(=O)c1ccc(CSc2nc3ccncc3n2Cc2ccc(C)cc2)cc1,-0.637%
11,COCCNC(=O)Cn1cnc2sc(C)c(S(=O)(=O)N3CCC(C)CC3)c2c1=O,2.06%
12,Cc1ccc(S(=O)(=O)N2CCC(C(=O)Nc3ccc(O)cc3)CC2)cc1,-2.37%
13,O=C(NCCOc1ccccc1)C(=O)c1c[nH]c2ccccc12,1.03%
14,COc1cccc(C2C3=C(O)CC(C)(C)CC3=NC(C)=C2C(=O)Nc2cccc(F)c2)c1 (stereo not shown),-4.76%
15,O=C(NCCN1CCCC1)C1CCC(CNS(=O)(=O)c2ccccc2)CC1 (stereo not shown),-6.4%
16,CCCN1C(=O)C(NC(=O)c2cccnc2)(C(F)(F)F)N=C1c1ccccc1 (stereo not shown),3.54%
17,C=CCOc1ccc(/C=C2/C(=N)N3C(SC)=NSC3=NC2=O)cc1OC,4.79%
18,CCOc1ccccc1NC(=O)CN(c1ccc(F)cc1)S(C)(=O)=O,-1.43%
19,CCOc1c(Br)cc(/C=C2N=C(/C=C/c3ccccc3)OC/2=O)cc1OC,6.42%
20,CC1=C(C#N)C(NS(=O)(=O)c2ccccc2)(C(F)(F)F)C(=O)N1 (stereo not shown),-3.53%
21,CCOc1ccccc1NC(=O)c1ccc(C)o1,2.72%
22,Cc1ccc(Cn2c(=O)c3cccnc3n(Cc3ccc(C)cc3C)c2=O)cc1,-9.16%
23,O=C(Nc1ccccn1)c1sc2cccc(Cl)c2c1Cl,2.15%
24,CN(Cc1ccccc1)C(=O)CCn1ccc2cc(S(=O)(=O)N3CCCCC3)ccc21,10.1%
